Assay results taken from publication PMC6919601, “Identification of Plasmodium dipeptidyl aminopeptidase allosteric inhibitors by high throughput screening” (PLoS ONE, 2019).
Several values for one entry are separate records, joined by “and”; a condition that tells them apart may be missing. Equal values may be shown once. Hit rate of the full screen: of about 110,000 compounds, about 230 (0.21%) showed an effect of 50% or more. This is one part of the list.

What follows are molecules tested against DPAP1 (Plasmodium falciparum, UniProt Q8IIJ9) (assay: primary screen, percent inhibition; read by cleavage of a fluorogenic dipeptide substrate; higher = more effect of the substance).
Sequence of DPAP1 (Q8IIJ9 whole entry, looked up): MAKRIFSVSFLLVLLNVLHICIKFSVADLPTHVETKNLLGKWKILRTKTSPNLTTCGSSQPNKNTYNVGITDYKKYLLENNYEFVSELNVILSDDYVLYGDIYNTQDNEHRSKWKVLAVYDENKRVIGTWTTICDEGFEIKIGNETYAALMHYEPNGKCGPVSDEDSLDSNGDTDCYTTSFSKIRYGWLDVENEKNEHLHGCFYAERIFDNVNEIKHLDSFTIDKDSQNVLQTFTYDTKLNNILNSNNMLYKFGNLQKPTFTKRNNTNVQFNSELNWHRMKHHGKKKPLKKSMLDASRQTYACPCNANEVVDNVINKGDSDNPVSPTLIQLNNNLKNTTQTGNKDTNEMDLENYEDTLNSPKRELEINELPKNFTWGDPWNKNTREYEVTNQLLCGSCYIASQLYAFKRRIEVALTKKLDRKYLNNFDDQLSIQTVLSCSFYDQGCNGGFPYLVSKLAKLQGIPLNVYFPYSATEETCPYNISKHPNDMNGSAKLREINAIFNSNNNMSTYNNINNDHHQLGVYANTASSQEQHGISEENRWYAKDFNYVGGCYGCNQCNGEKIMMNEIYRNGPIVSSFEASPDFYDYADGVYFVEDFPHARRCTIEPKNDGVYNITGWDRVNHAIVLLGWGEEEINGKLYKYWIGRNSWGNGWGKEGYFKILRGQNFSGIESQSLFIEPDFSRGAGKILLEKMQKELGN
Design: species or system P. falciparum D10 trophozoite lysates; single well
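Also: 30 min substrate incubation versus DMSO and 10 µM JCP410 controls.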

SMILES | % Inhibition @ 10 uM
N#CC1=C(N)Oc2cc(O)ccc2C1c1ccc2ccccc2c1 (centres unmarked) | 9.41%
CCCC1CCc2c(O)nc3ccccc3c2O1 (centres unmarked) | 2.48%
CC1(C)CC(=O)C2=C(C1)N(c1c(F)cccc1F)C(N)=C(C#N)C2c1ccccc1 (centres unmarked) | -3.46%
COc1cc(-c2[nH]nc3c2C(c2ccccc2Br)C(C#N)=C(N)O3)cc(OC)c1OC (centres unmarked) | -1.08%
CCOc1cc(CN2CCCCCC2)ccc1OC | -5.41%
O=C1CCCC2=C1C(c1ccc(-c3ccccc3)cc1)C1=C(CCCC1=O)O2 | -2.6%
CC(C)(C)NC(=O)c1cccc(Oc2ccc([N+](=O)[O-])cc2)c1 | -4.23%
OCCCn1c(-c2ccc(F)cc2)cs/c1=N\c1ccc(Cl)cc1 | -3.95%
CC(C)CN(CC(C)C)S(=O)(=O)c1ccc(-c2ccc(O)nn2)s1 | -1.97%
Cc1cccc(C(=O)Nc2sc3c(c2C(=O)NCC2CCCO2)CCC3)c1 (centres unmarked) | 6.35%
O=C(Cn1cc(S(=O)(=O)Cc2ccccc2F)c2ccccc21)NC1CCCCC1 | 1.25%
C=Cc1ccc(Cn2c(C(=O)O)c(CNCc3ccc(C)cc3)c3ccc(C)cc32)cc1 | 0.359%
CC1(C)CC(O)=C/C(=N/CCCN2CCCC2=O)C1 | 7.63%
Cc1ccc(C2=CC(c3ccccc3OC(F)F)n3nnnc3N2)cc1 (centres unmarked) | 0.219%
Cc1ccc(C2N=C(SCCC(C)C)NC(c3ccc(C)cc3)C23C(=O)NC(=O)NC3=O)cc1 (centres unmarked) | 1.5%
COc1ccc(/C=C/c2onc(C)c2S(=O)(=O)N2CCC(C(=O)O)CC2)cc1 | -2.17%
C=CCOc1ccc(CNCCCSc2nnnn2C)cc1 | 0.596%
COc1cc(=O)[nH]c(=O)n1C(=O)Cc1ccccc1 | 0.756%
O=C(NCC1CCCO1)c1csc2c1CCCC2 (centres unmarked) | 0.277%
CCNc1oc(Cc2cccc3ccccc23)nc1C#N | 3.92%
Cc1ccccc1C1CC(=O)N2CN(Cc3ccco3)CSC2=C1C#N (centres unmarked) | 26%
N#CC1=C(N)N(c2ccc(C(N)=O)cc2)C2=C(CCC2)C1(C(F)(F)F)C(F)(F)F | -3.9%

SMILES | % Inhibition @ 10 uM
Cc1ccc(S(=O)(=O)N2CCN(Cc3cc(C(C)C)ccc3O)CC2)cc1 | -3.04%
CCOC(=O)C1=C(CN2CCn3cccc3C2C)NC(=O)NC1c1ccc(Cl)cc1 (centres unmarked) | -1.03%
COc1ccc2c(c1)C1CC(C)(O2)N(C)C(=O)C1S(=O)(=O)c1ccc(C(C)(C)C)cc1 (centres unmarked) | 2.57%
N#CCNC(=O)[C@H](CSCc1cccnc1)NC(=O)c1ccccc1 | -3.49%
COC(=O)n1c(SCC(=O)Nc2ccc(Cl)cc2)nc2ccccc21 | -1.22%
CC(C)c1cccc(C(C)C)c1OCCN1CCCC1 | 2.7%
COc1cc(C2C(C#N)=C(N)OC(C)=C2C(C)=O)cc(OC)c1OC (centres unmarked) | -0.99%
Cc1ccccc1CS(=O)(=O)Cc1ccc(C(=O)NC2CCCC2)o1 | 3.24%
CN1CCC(NCCC2=CCCCC2)CC1 | -0.0953%
CCOc1ccc2ccccc2c1/C=C1\N=C(SCC)SC1=O | -1.07%
COc1ccc(C(N)=O)cc1NC(C)=O | 6.11%
CCN1CCN(Cc2c(NC(=O)c3ccc(F)cc3)sc3c2CCC3)CC1 | 6%
CC1CCC(NCc2ccc3c(c2)OCO3)C1 (centres unmarked) | -4.95%
Nc1ccc(Nc2nc(-c3ccccc3)cs2)cc1 | -0.711%
N#C/C(=C\c1cc2c(cc1Br)OCO2)c1nc2ccccc2[nH]1 | -1.44%
Cc1sc2nc3c4ccccc4c(N4CCC(C)CC4)nn3c(=O)c2c1C | 3.29%
CCOCC(O)CSc1nc2ccccc2s1 (centres unmarked) | -2.36%
CC1CC(C)(C)NC(=S)N1CCC(=O)N1CCc2ccccc2C1 (centres unmarked) | 4.33%
CCOC(=O)c1c(-c2ccccc2)csc1NC(=O)C1Cc2ccc(C)cc2C(=O)O1 (centres unmarked) | 0.221%
Cc1ccc(C(=O)Nc2ccc(CC(=O)O)cc2)cc1C | 2.46% and 0.163%
CCCN(CCC)C(=O)c1ccccc1NC(=O)c1cccs1 | 9.6%
COc1ccccc1OCc1nc(C#N)c(NCCc2ccccc2)o1 | -2.77%

SMILES | % Inhibition @ 10 uM
N#CCNC(=O)[C@H](Cc1ccc2ccccc2c1)NC(=O)c1ccc(-c2csc(Nc3ccncc3)n2)cc1 | 2.22%
O=C(CCc1ccccc1)NCCc1nc2ccccc2[nH]1 | 0.222%
Cc1nn2c(=O)c(NC(=O)c3ccccc3)cnc2s1 | -1.52%
Oc1cc(-c2ccccc2)nc(SCCOc2ccccc2)n1 | 2.17%
C/N=C/C1=C(O)c2ccccc2C1=O | -1.4%
CCS(=O)(=O)N1CCN(Cc2noc(CCC(=O)N3CCOCC3)n2)CC1 | 1.41%
COc1cc2c(cc1OC)-c1nnc(-c3cccs3)n1C(C)(C)C2 | -4%
CCOc1ccc(CNc2nc3ccccc3n2CCN2CCOCC2)cc1 | -6.96%
COc1cc2nc(NCCCN(C)Cc3ccccc3)n3nc(-c4ccccc4)nc3c2cc1OC | 2.6%
Cc1nn(C)c(C)c1NC(=O)c1ccnn1C | 2%
CC(=O)N1CCC2(CC1)CC(=O)c1cc(OCC(=O)NCc3ccccc3Cl)ccc1O2 | 1.37%
COc1ccc(Cn2ccc3nc(C)c(C(=O)N4CCC(C)CC4)cc3c2=O)cc1 | -0.656%
COc1cc(/C=C/c2nc(C#N)c(N3CCC(C(N)=O)CC3)o2)cc(OC)c1OC | 2.54%
O=C(c1cccnc1)N1CCN(C(=O)c2cccc(F)c2)CC1 | 3.27%
O=C(Cc1ccccc1)Nc1ccc(-c2ccccc2)cc1[N+](=O)[O-] | -4.58%
Cc1nn(-c2ccccc2)c2c1C(C(F)(F)F)(C(F)(F)F)N=C(N1CCOCC1)O2 | -5.4%
O=C(O)c1cccc2c1C(=O)N(Cc1cccnc1)C2 | -6.67%
Cn1c(=O)c2sccc2n2c(CCCC(=O)NCCC3=CCCCC3)nnc12 | 0.6%
COc1ccc(-c2nc(-c3ccc(C)cc3)no2)cc1 | 0.0538%
CCO/C(O)=C/c1nc2nonc2nc1O | -9.83%
COc1ccc(C2CC(=O)C3=C(C2)NC(=O)CC3c2ccccc2C)cc1OC (centres unmarked) | -2.87%
